The campaign covered roughly 360,000 compounds. About 6,000 (1.7%) were called active. This list was built around the results that the source calls inconclusive (neither active nor inactive); the mix of calls is not that of the screen. Calls come from the whole dose curve; as a rule, active = well fitted cell-killing curve with a large enough effect; inconclusive = small, poorly fitted or top-dose-only effect, or effect the other way; inactive = flat fitted curve, though single readings scatter. Potencies of inconclusive entries are left out as doubtful fits.
Experiment: qHTS for induction of synthetic lethality in tumor cells producing 2HG: qHTS for the HT-1080-NT fibrosarcoma cell line;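 note: NT is the 2HG producing partner of a matched IDH1 knockdown line; nearly all actives have a fitted effect of over 55% in size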;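 for activity, negative = less viability: 0% = DMSO-treated cells and -100% = media-only wells without cells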
Conditions: HT-1080-NT fibrosarcoma viability, CellTiter-Glo ATP luminescence, 48 h; activity, negative = less viability: at 46.1 µM (top of the series) unless noted
Method in brief: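 750 cells/well, RPMI + 5% FBS; 2 h settle, compound pin-transfer, 48 h at 37 degrees C. CellTiter-Glo 10 min RT, luminescence. Normalized to DMSO and media-only wells.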
Potency is the fitted concentration of half-maximal effect; tags give direction and shape of the fitted curve.

| SMILES | Potency | activity, negative = less viability |
| --- | --- | --- |
| N#CC1=C(N)NC(SCC(=O)Nc2ccc(Br)cc2)=C(C#N)C12CCCCC2 | inconclusive [cytotoxic, single point] |  |
| CC(C)(C)NS(=O)(=O)c1ccc(NC(=O)c2cc(-c3ccccc3)nc3ccccc23)cc1 | inactive |  |
| CCCOP(=O)(c1ccc(N(C)C)cc1)C(Nc1ccccc1)c1ccc(C)cc1 (stereo not given) | inconclusive [cytotoxic, partial curve, poor fit] |  |
| COc1ccccc1NC(=S)N(CCCN1CCOCC1)Cc1cccs1 | inactive |  |
| O=C(Nc1cccc(NC(=O)c2cc([N+](=O)[O-])ccc2Cl)n1)c1cc([N+](=O)[O-])ccc1Cl | inconclusive [cytotoxic, partial curve] |  |
| O=C1C(NS(=O)(=O)c2ccc(Br)cc2)=C(N2CCCCC2)C(=O)c2ccccc21 | inconclusive [cytotoxic, single point] |  |
| O=C(c1cccnc1)N1CCC(Oc2ccc(C(=O)N3CCCCO3)cc2)CC1 | inactive |  |
| COc1ccc(/C(C)=N/Nc2nc(C)cc(-c3ccccc3)n2)cc1 | inconclusive [cytotoxic, partial curve] |  |
| COc1cc(/C=C(\C#N)C(=O)NC2CCCCC2C)ccc1OS(=O)(=O)c1ccc(C)cc1 (stereo not given) | inconclusive [cytotoxic, single point] |  |
| COc1ccc(Cn2cc(CN3CCc4onc(-c5ccc(Br)cc5)c4C3=O)nn2)cc1 | inconclusive [cytotoxic, single point] |  |
| COc1cc([N+](=O)[O-])cc(/C=N/NC(=O)c2cc(-c3ccccc3)nc3ccccc23)c1O |  | inconclusive: -15.3% [cytotoxic] |
| O=C(Nc1ccc(F)cc1F)Nc1sccc1-c1nc2ccccc2s1 | inconclusive [rising, partial curve] |  |
| Cc1cccc(C)c1NC(=O)CN(C)C(=O)CN1C(=O)NC(C)(C)C1=O | inactive |  |
| COc1cc(-c2cnc3c(NC=O)cc(-c4ccc(C)cc4)cn23)cc(OC)c1OC | inconclusive [cytotoxic, full curve, poor fit] |  |
| COc1ccc(Cl)cc1NC(=O)CN(C)CC(=O)Nc1cc(OC)c(OC)c(OC)c1 | active: 11.6 µM |  |
| Cc1ccsc1-c1cc2nc(NCCCN(C)C)n(C)c(=O)c2s1 | active: 5.8 µM |  |
| COc1ccccc1/C=C/C1(C(=O)NC2CCCC2)CC(=O)N1c1ccc(F)cc1 (stereo not given) | inconclusive [cytotoxic, single point] |  |
| CCCCn1c(N)c(N(Cc2ccccc2OC)C(=O)COc2ccccc2OC)c(=O)[nH]c1=O | inactive |  |
| NC(=O)C1CCCN(C(=O)c2ccc(-c3cccc(Cl)c3Cl)o2)C1 (stereo not given) | inconclusive [cytotoxic, single point] |  |
| Cc1ccccc1NC(=O)Nc1nc(C(N)C2CCCCC2)cs1 (stereo not given) | inconclusive [cytotoxic, single point] |  |
| CSc1ncccc1C(=O)NC(C)CCc1ccccc1 (stereo not given) | inactive |  |
| CN(C)CCC1(C2=CCCC2)CC/C(=C/c2ccc(Cl)cc2)C1=O (stereo not given) | inconclusive [cytotoxic, partial curve] |  |
| CC(Oc1ccccc1)C(=O)Nc1nnc(S(=O)(=O)N(C)c2ccccc2)s1 (stereo not given) | inactive |  |

| SMILES | Potency | activity, negative = less viability |
| --- | --- | --- |
| CCN(CC)S(=O)(=O)c1ccc(N/N=C(\C)c2ccc(OC)cc2O)nc1 | inconclusive [cytotoxic, single point] |  |
| O=S(=O)(c1ccccc1)N1CCN(C(=S)Nc2ccc(F)cc2)CC1 | inactive |  |
| O=C(Nc1cccc(-c2nnc(-c3ccccc3)o2)c1)C1CCCCC1 | inactive |  |
| CCOc1ccccc1-n1nnnc1SCC(=O)O | inactive |  |
| O=C(/C=C/c1ccncc1)c1ccc(NC(=O)c2ccccc2F)cc1 | active: 7.31 µM |  |
| CCCCN(c1ccccc1)S(=O)(=O)c1cccc(C(=O)Nc2c(C)n(C)n(-c3ccccc3)c2=O)c1 | inactive |  |
| CCCc1c(-c2ccc(Cl)cc2)ncn1Cc1ccccc1OC | inconclusive [cytotoxic, single point] |  |
| CCCSc1ccc2nc(-c3ccccc3)cn2c1 | active: 11.6 µM |  |
| CC(=O)Nc1ccc(-c2ccnc3c2CC(C(=O)NCc2cccc(Cl)c2)O3)cc1 (stereo not given) | inconclusive [cytotoxic, full curve, poor fit] |  |
| Cc1c(C(=O)NCCC2=CCCCC2)oc2ccc(S(=O)(=O)N3CCOCC3)cc12 | inactive |  |
| CN(C)C(=O)c1ccc(N=Nc2c(O)c3ccccc3[nH]c2=O)cc1 | active: 5.8 µM |  |
| Oc1ccc(/C=N/Nc2ccc(C(F)(F)F)cn2)cc1O | inconclusive [cytotoxic, partial curve] |  |
| CC(C)(C)c1cc(C(=O)N/N=C/c2cc3c(cc2Br)OCO3)n[nH]1 | inconclusive [cytotoxic, single point] |  |
| O=C(CN1CCCC1)N1CCCc2c1c(=O)oc1ccc(OCc3ccccc3)cc21 | inconclusive [cytotoxic, single point] |  |
| Brc1ccc(C2Nc3cccc4cccc(c34)N2)o1 | inconclusive [cytotoxic, partial curve] |  |
| CCOC(=O)c1cc2c(=O)n3ccccc3nc2n(CCOC)c1=NC(=O)c1c(-c2c(F)cccc2Cl)noc1C | inconclusive [cytotoxic, full curve] |  |
| O=C1CCCc2[nH]c(-c3ccccc3)nc21 | inactive |  |
| Cc1nc2ccn(Cc3ccccc3)c(=O)c2cc1C(=O)N1CCN(c2ccccc2)CC1 | inconclusive [cytotoxic, single point] |  |
| COc1ccc(-c2coc3cc4oc(=O)c5ccccc5c4cc23)cc1F | inconclusive [cytotoxic, full curve] |  |
| C[C@@H]1NC(=O)N(c2ccc(F)cc2)C1=O | inactive |  |
| CC(C)CC(NC(=O)OC(C)(C)C)c1cn([C@@H](CCCCNC(=O)OC(C)(C)C)C(=O)N2CCN(C(=O)OC(C)(C)C)CC2)nn1 (stereo not given in full) | inactive |  |
| CCOc1cc(/C=N/Nc2nn3cnnc3c3ccccc23)ccc1O | inconclusive [cytotoxic, single point] |  |
